Laboratory results from paper PMC6925134.
Changes are numbered by the printed parent chain. Numbers in names are those of the source. Results are given in words; binding and its absence hold for the method and conditions named. In cells and extracts the contact can be indirect. Some entries that bind do so weakly or less than the wild type. For some assays here: Where a sequence is shown, tags or fusion partners need not be part of it. One block for each molecule: values may come before it.

Protein sequences, listed by entry. Tags and fused reporters are not part of them. Lines headed by an entry give the natural chain unless they say otherwise; changes in a name come on top.
UniProt P08670: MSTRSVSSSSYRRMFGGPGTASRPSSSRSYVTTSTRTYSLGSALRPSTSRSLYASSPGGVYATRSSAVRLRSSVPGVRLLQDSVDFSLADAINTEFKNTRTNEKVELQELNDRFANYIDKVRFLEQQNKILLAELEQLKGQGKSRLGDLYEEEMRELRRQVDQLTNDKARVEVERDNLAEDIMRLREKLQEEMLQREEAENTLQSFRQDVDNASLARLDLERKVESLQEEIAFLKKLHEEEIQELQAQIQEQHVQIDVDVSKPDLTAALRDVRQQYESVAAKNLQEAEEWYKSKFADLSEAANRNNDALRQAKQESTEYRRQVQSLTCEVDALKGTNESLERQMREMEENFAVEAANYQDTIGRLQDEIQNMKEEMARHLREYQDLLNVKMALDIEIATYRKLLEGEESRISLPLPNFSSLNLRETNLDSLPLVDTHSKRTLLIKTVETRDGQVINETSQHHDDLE

Columns and labels:
[1] = target: T1, RNF208 in Hs578T cells (co-immunoprecipitation) (human) (UniProt Q9H0X6); assay: co-IP; Hs578T cells; called endogenous interaction (Supplementary Fig. 6c); antibodies not told
T1 sequence: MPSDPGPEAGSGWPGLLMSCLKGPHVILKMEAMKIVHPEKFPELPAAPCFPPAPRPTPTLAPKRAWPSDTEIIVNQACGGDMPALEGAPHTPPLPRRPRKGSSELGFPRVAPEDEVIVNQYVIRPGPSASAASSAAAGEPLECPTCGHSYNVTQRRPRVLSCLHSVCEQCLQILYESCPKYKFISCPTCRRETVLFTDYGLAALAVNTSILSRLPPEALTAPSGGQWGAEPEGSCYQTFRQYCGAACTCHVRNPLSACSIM

[2] = target: T2, Flag-RNF208 stably overexpressed in MDA-MB-231 cells (human) (UniProt Q9H0X6); assay: co-IP; RNF208-overexpressing MDA-MB-231 cells with or without MG132; lysates immunoprecipitated with anti-Flag antibody, blotted for phosphorylated Vimentin (S39)
T2 sequence: T1 sequence

[3] = target: T3, Myc-RNF208 (RING finger protein 208), wild type (human) (UniProt Q9H0X6); assay: co-IP; 293T cells cotransfected with Myc-RNF208 and Flag-Vimentin, MG132 treatment; lysates immunoprecipitated with anti-Myc antibody
T3 sequence: T1 sequence

[4] = target: Flag-Vimentin (S56A) mutant (human) (UniProt P08670); assay: co-IP; 293T cells cotransfected with Myc-RNF208 and Flag-Vimentin (wild type or serine mutants), MG132 treatment; lysates immunoprecipitated with anti-Flag antibody
[5] = target: Flag-Vimentin, wild type (human) (UniProt P08670); assay: as above
[6] = target: Flag-Vimentin (S83A) mutant (human) (UniProt P08670); assay: as above
[7] = target: Flag-Vimentin (S73A) mutant (human) (UniProt P08670); assay: as above
[8] = target: Flag-Vimentin (S39D) mutant (human) (UniProt P08670); assay: as above
[9] = target: Flag-Vimentin, wild type (human) (UniProt P08670); assay: co-IP; 293T cells cotransfected with wild-type RNF208 or RNF208 mutant (C143A, C167A, C186A) and Flag-Vimentin, MG132 treatment; precipitating antibody not told

Molecule: Flag-Vimentin, wild type (from UniProt P08670 1-466)
- binding [3]: binds

B1: Myc-RNF208 (RING finger protein 208), wild type (protein, UniProt Q9H0X6 1-261)
chain: T1 sequence
- binding [4]: binds
- binding [5]: binds
- binding [6]: binds
- binding [7]: binds
- binding [8]: binds

B2: RNF208 mutant C167A (protein, UniProt Q9H0X6 1-261)
chain: T1 sequence with C167A
- binding [9]: no binding

B4: RNF208 mutant C143A (protein, UniProt Q9H0X6 1-261)
chain: T1 sequence with C143A
- binding [9]: no binding

Continued, values first:

- binding [1]: binds
Molecule: Vimentin, endogenous in TNBC cells (from UniProt P08670 1-466)

- binding [2]: binds
Molecule: Vimentin phosphorylated at the Ser39 residue, endogenous (from UniProt P08670 1-466)

- binding [9]: no binding
B3: RNF208 mutant C186A (protein, UniProt Q9H0X6 1-261)
chain: T1 sequence with C186A
